Assay results as given in PubChem BioAssay AID652104 (National Center for Advancing Translational Sciences (NCATS), 2013).
Screen size: about 410,000 compounds; about 7,200 (1.8%) were called active. This list was built around the results that the source calls inconclusive (neither active nor inactive); the mix of calls is not that of the screen. The call rests on the fitted dose curve; in most records, active means well fitted activation curve with a large enough effect; inconclusive means small, poorly fitted or top-dose-only effect, or another doubt; inactive means no such curve, though single readings can be large or run the other way. No potency is given beside an inconclusive call; the fits are too rough.
Potency means the concentration at half of the fitted maximal effect; tags describe the fitted curve by direction and shape.

Assay: qHTS of TDP-43 Inhibitors; further: nearly all actives have a fitted effect of over 50% in size
Settings: TDP-43 expressing yeast growth rescue, BacTiter-Glo, 24 h; series mostly up to 46.1 µM
Procedure, shortened: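 Yeast cells expressing TDP-43 under galactose induction are exposed to compounds for 24 hr at 30 deg C. BacTiter-Glo luminescence measures growth, so protective compounds score as activators.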
With `Cc1ccc2c(=O)n3c(nc2c1)C(Cc1ccccc1)NC(=O)c1cccnc1-3` (centres undefined) the Potency was inconclusive [activator, single point].
For `CCn1nc(C(=O)OCC(=O)c2c[nH]c3ccccc23)c2ccccc2c1=O`, the Potency was inconclusive [activator, partial curve].
In the case of `CCOC(=O)c1ccc(N2C(=O)CC(N(C)Cc3ccccc3)C2=O)cc1` (centres undefined), the Potency is reported as active: 2.82 µM.
In the case of `Clc1cccc(CSc2ncn(-c3ccccc3)n2)c1`, the Potency is reported as active: 12.6 µM.
With `Cc1ccc(C)c(C(C)NC(=S)NCc2ccc(F)cc2)c1` (centres undefined) the Potency was inconclusive [activator, single point].
For `CCC(CC)C(=O)N1CCCC(c2nc(-c3cccs3)no2)C1` (centres undefined), the Potency was inconclusive [activator, partial curve, poor fit].
With `CCCc1nn(C)c(C(=O)Nc2ccc(CC)cc2)c1Cl` the Potency was inconclusive [activator, partial curve].
For `CCC(Oc1ccccc1)C(=O)Nc1ccc(OCc2cc(=O)n3ccc(C)cc3n2)cc1` (centres undefined), the Potency was “inactive”.
With `CCOC(=O)c1c(NC(=O)c2ccco2)n(C2CCCCC2)c2nc3ccccc3nc12` the Potency was “inactive”.
With `CN(CC(=O)Nc1ccc(F)cc1)C(=O)c1ccc(-c2ccc(Cl)cc2)o1` the Potency was inconclusive [activator, single point].
With `Cc1ccsc1C(=O)NNC(=O)COc1ccccc1Cl` the Potency was inconclusive [activator, single point].
For `Clc1ccccc1C1Nc2cccc3cccc(c23)N1`, the Potency was “inactive”.
With `COc1cc(OC)cc(-c2c(C#Cc3ccsc3)c3cc(-c4ccc(OC)nc4)ccc3n2C)c1` the Potency was “inactive”.
With `Cc1nc(N2CCOCC2)nc(N2CCC(C)CC2)c1[N+](=O)[O-]` the Potency was inconclusive [activator, partial curve].
In the case of `COc1ccc2nnc(-c3ccccc3)n2n1`, the Potency is reported as inconclusive [activator, partial curve].
For `CNc1nc(Nc2ccc(C(C)=O)cc2)nc(OC(C(F)(F)F)C(F)(F)F)n1`, the Potency was inconclusive [activator, partial curve].
With `CCOC(=O)/C(C#N)=C/Nc1ccccc1OC` the Potency was inconclusive [activator, partial curve].
For `O=C(CNC(=O)c1ccccc1)Nc1cccc(C(F)(F)F)c1`, the Potency was inconclusive [activator, partial curve].
With `Cc1ccc2c(c1)c1ncnc(N3CCc4ccccc4C3)c1n2C` the Potency was active: 22.4 µM.
For `N#Cc1cccc(-c2nnc(SCc3ccccc3C#N)o2)c1`, the Potency was active: 17.8 µM.
With `Cc1ccccc1NC(=S)NCc1ccc(Cl)cc1` the Potency was inconclusive [activator, partial curve].
With `O=S1OC(c2ccccc2)c2cc(Cl)ccc21` (centres undefined) the Potency was active: 12.6 µM.
In the case of `Cc1ccc(NC(=O)c2nc(S(=O)(=O)Cc3ccccc3)ncc2Cl)cc1`, the Potency is reported as inconclusive [activator, single point].
In the case of `O=C(c1cnc(N2CCOCC2)c2ccccc12)N1CCN(c2ccccc2F)CC1`, the Potency is reported as inconclusive [activator, partial curve].
With `OC[C@@H]1CN(Cc2ccc3c(c2)OCO3)C[C@H](n2cnc3c(NC4CC4)ncnc32)O1` the Potency was “inactive”.
For `CS(=O)(=O)c1ccc(C(=O)OCc2nnc(-c3ccccc3)o2)cc1[N+](=O)[O-]`, the Potency was inconclusive [activator, single point].
For `COc1ccc(C2=NN(C(=O)CSc3ncccn3)C(c3ccc(OC)cc3)C2)cc1` (centres undefined), the Potency was inconclusive [activator, single point].
In the case of `COc1cccc(NC(=O)COC(=O)c2ccc3ccccc3n2)c1`, the Potency is reported as inconclusive [activator, partial curve].
For `COc1cc(C(=O)Nc2ccc(OCc3cc(=O)n4cccc(C)c4n3)cc2)cc(OC)c1OC`, the Potency was “inactive”.
For `CCOc1ccc(CNC(=O)CCc2cn(CC)c3ccccc23)cc1`, the Potency was inconclusive [activator, full curve].
For `CCN(CC)S(=O)(=O)c1ccc2oc(SCC3CN=C(c4ccc(OC)cc4)S3)nc2c1` (centres undefined), the Potency was inconclusive [activator, partial curve].
For `Cc1ccc(-c2cc(C(=O)N3CCC(C)CC3)c3ccccc3n2)cc1`, the Potency was inconclusive [activator, single point].
For `CCC1=C(c2ccc(C)cc2)S(=O)(=O)N=C1N1CCC(C(=O)N2CCCCC2)CC1`, the Potency was “inactive”.
For `CCOc1ccc(S(=O)(=O)N(C)c2ccc(OCC(=O)Nc3ccccc3F)cc2)cc1`, the Potency was inconclusive [activator, full curve, poor fit].
In the case of `CC(C)NC(=O)C1CCN(C(=O)N2CC(C)Oc3ccccc32)CC1` (centres undefined), the Potency is reported as inconclusive [activator, full curve, poor fit].
With `O=C(CCCc1nc2ccccc2s1)N1CCN(c2ccccc2)CC1` the Potency was inconclusive [activator, partial curve].
With `Cc1cccc(C(=O)OCC(=O)Nc2ccc3c(c2)OCCO3)c1O` the Potency was inconclusive [activator, full curve, poor fit].
For `Cc1nn(-c2ccccc2)c(Cl)c1/C=N/NC(=O)c1ccco1`, the Potency was inconclusive [activator, partial curve].
For `Cc1ccc(C(=O)c2cncc(Br)c2)cc1`, the Potency was inconclusive [activator, single point].
In the case of `O=C(NCC1CCCCC1)c1csc([C@@H]2C[C@H](O)[C@@H](CO)O2)n1`, the Potency is reported as “inactive”.
In the case of `CCOC(=O)N1CCN(C(=O)c2ccc3c(c2)N(Cc2ccccc2)CCS3)CC1`, the Potency is reported as inconclusive [activator, single point].
With `O=C(O)Cn1nnnc1SCC(=O)Nc1ccc(F)cc1F` the Potency was “inactive”.
For `COc1ccc(-c2nn(C)c3sc(C(=O)N4CCN(c5cccc(Cl)c5)CC4)cc23)cc1OC`, the Potency was inconclusive [activator, partial curve].
For `CCn1cc(C(=O)O)c(=O)c2cc(Br)ccc21`, the Potency was inconclusive [activator, full curve].
